# Test results as given in patent US11178870B2 (priority 2017, dated 2021).
# Key:
# Magnaporthe grisea = format: in vivo; conditions: class of control value, Table 7
# Phytophthora infestans = format: in vivo; conditions: class of control value, Table 7
# [1] = test system: Colletotrichum orbiculare; conditions: 250 ppm spray, 2.5 ml/pot; investigated 6 to 10 days after inoculation
Compound,Test A control value (blast on rice) (Magnaporthe grisea),Test F control value (late blight on tomato) (Phytophthora infestans),Test H control value (anthracnose on cucumber) [1]
CCn1c(-c2c(F)cccc2Cl)c(-n2cc(F)cn2)cc(Cl)c1=O [Compound 379],H (H shows the control value more than 50%),L (L shows the control value of 50% or less),H (H shows the control value more than 50%)
CCn1c(-c2c(F)cccc2Br)c(-n2cc(F)cn2)cc(Br)c1=O [Compound 392],H (H shows the control value more than 50%),H (H shows the control value more than 50%),L (L shows the control value of 50% or less)
Cc1cnn(-c2ccc(=O)n(CC(F)F)c2-c2ccccc2Br)c1 [Compound 405],L (L shows the control value of 50% or less),L (L shows the control value of 50% or less),L (L shows the control value of 50% or less)
